Reference: PubChem BioAssay AID1508624 (National Center for Advancing Translational Sciences (NCATS), 2021)
Among all 48,000 compounds or so, about 120 (0.25%) were called active. About 4% were inconclusive and are not listed. Calls follow the shape of the dose curve; as a rule, active = well fitted activation curve with a large enough effect; inconclusive = small, poorly fitted or top-dose-only effect, or another doubt; inactive = no such curve, though single readings can be large or run the other way. The list shows a part of the results.

Test: Primary qHTS for Identification of Small Molecule Activators of Huntingtin-Antisense Promoter Activity; also: nearly all actives have a fitted effect of over 55% in size
Conditions: HEK293 HTT-AS promoter firefly luciferase reporter, 24 h; series mostly up to 57.5 µM; activity change, positive = activation: at the top concentration
How it was run: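 Firefly luciferase signal from promoter-reporter HEK293 cells was scaled between vehicle (0%) and zero RLU (-100%). Compounds were tested at final concentrations of up to 57.5 uM over 24 h at 37 degrees C. PTC124 at 50 uM final served as control inhibitor.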

Row | Structure (SMILES) | activity change, positive = activation
1 | O=C(Cn1c(=O)n(Cc2ccco2)c(=O)c2oc3ccccc3c21)Nc1ccc(F)cc1F | inactive: -24.1%
2 | Cc1cn2c(=O)cc(COc3ccc(NC(=O)c4cccc(F)c4)cc3)nc2s1 | inactive: 3.89%
3 | Cc1nn(CCCC(=O)Nc2ccccc2C(F)(F)F)c(=O)c2c1sc1ccccc12 | inactive: 3.02%
4 | COc1cccc(NC(=O)Nc2cc(-c3cn4cccnc4n3)ccc2C)c1 | inactive: -23.8%
5 | CCC(Sc1nnc(C)n2c1cc1occc12)C(=O)Nc1ccccc1F (stereo unspecified) | inactive: -32.4%
6 | O=C(NCCO)C(=O)Nc1c2c(nn1-c1ccc(F)cc1)CSC2 | inactive: -5.7%
7 | C[C@]12CCC(=O)C=C1CC[C@@H]1[C@@H]2[C@@H](O)C[C@@]2(C)[C@H]1CC[C@]2(O)C(=O)COC(=O)CCC(=O)O | inactive: -6.9%
8 | Cc1cccc(N2CCN(S(=O)(=O)c3ccc4c(c3)CCCN4C(=O)C3CCC3)CC2)c1C | inactive: -16.2%
9 | COc1ccccc1N1CCN(C(=O)Cn2ncc3c(=O)oc4ccccc4c32)CC1 | inactive: -0.617%
10 | O=C(Nc1cccc(Cl)c1)c1c(NC(=O)C(F)(F)F)sc2c1CCCC2 | inactive: -94.1%
11 | CC(=O)Nc1cccc(NC(=O)Cn2cnc3c2c(=O)n(C)c(=O)n3C)c1 | inactive: -11.8%
12 | Cc1nc(N2CCCC2)c2c(C(=O)Nc3cccc(C)c3C)c(C)oc2n1 | inactive: -19.5%
13 | CCN(CC)c1ccc(NC(=O)C(Cc2ccccc2)NS(=O)(=O)c2ccc(Br)s2)c(C)c1 (stereo unspecified) | inactive: -14.1%
14 | COc1ccc(CCNCc2c(C(=O)O)c(C)n(Cc3ccccc3C)c2C)c(OC)c1 | inactive: -11.6%
15 | COc1ccc(S(=O)(=O)N(CC(=O)NCc2ccccc2OC)c2ccc(C)cc2)cc1 | inactive: -34.4%
16 | CCOc1ccccc1N(C)C(=O)Cn1cnc2sc(C)c(S(=O)(=O)N3CCC(C)CC3)c2c1=O | inactive: -11.1%
17 | COc1cc(OC)c(NC(=O)COCc2cc(-c3cccs3)on2)cc1Cl | inactive: -14.1%
18 | CC(C)(C)NC[C@H](O)COc1nsnc1N1CCOCC1 | inactive: -8.5%
19 | CCOCCOC(=O)c1ccc(NC(=O)/C=C/c2ccc(OC)c(OC)c2)cc1 | inactive: 6.41% [at 11.5 µM, percent change from vehicle, -100% = no light]

Row | Structure (SMILES) | activity change, positive = activation
20 | O=C(CSc1ncc2c(n1)-c1ccccc1N(Cc1ccc(F)cc1)S2(=O)=O)c1ccc(Cl)cc1 | inactive: 16.2%
21 | CCc1cc2c(cc3c(=O)n(CC(=O)N4CCN(c5cc(Cl)ccc5C)CC4)ncn32)s1 | inactive: -5.04%
22 | Cc1ccc(S(=O)(=O)c2cn(C)c3cc(N4CCN(C)CC4)c(F)cc3c2=O)cc1 | inactive: -5.91%
23 | Cc1cccc(C)c1-n1ncc(C(=O)Nc2ccc3c(c2)OCCO3)c1C1CCN(C(=O)OC(C)(C)C)CC1 | inactive: -41.7%
24 | COc1ccc(Nc2c(-c3cc(Br)ccc3O)nc3ncccn23)cc1OC | inactive: -25.6%
25 | COc1ccccc1N1CCN(S(=O)(=O)c2c(C)sc3ncn(CC(=O)N(C)c4ccc(C(C)C)cc4)c(=O)c23)CC1 | inactive: -7.99%
26 | CNS(=O)(=O)c1ccc(OC)c(-c2nnc3c4ccccc4c(C)nn23)c1 | inactive: -7.4%
27 | CC(C)Oc1ccc(CNC(=O)C2CCN(C(=O)c3sccc3-n3cccc3)CC2)cc1 | inactive: -23.8%
28 | Cc1ccc(-c2noc(CNC(=O)c3ccc(C(C)(C)C)cc3)n2)cc1 | inactive: -8.14%
29 | COc1ccccc1CNC(=O)CN1C(=O)CSc2ccc(S(=O)(=O)N3CCCC3)cc21 | inactive: -8.78%
30 | Cc1ccc(C(=O)Nc2ccc(CN3CCN(C)CC3)c(C(F)(F)F)c2)cc1C#Cc1cnc2cccnn12 | inactive: -22.4%
31 | CC(C)OCCCN(Cc1ccco1)C(=O)c1cc2c(s1)-c1ccccc1OC2 | inactive: -28.8%
32 | CCN(CC)C(=O)Cn1cc(SCC(=O)Nc2cccc(C)c2)c2ccccc21 | inactive: -23%
33 | COCc1cc(C)n(CC(=O)Nc2ccc(NC(C)=O)cc2)c(=O)c1C#N | inactive: -17.3%
34 | COc1ccccc1-c1noc(-c2ccc(N3CCN(c4ccccc4)CC3)c([N+](=O)[O-])c2)n1 | inactive: -14.2%
35 | COc1ccc(N2CCN(c3cc(C)nc4nc(-c5ccc(C)cc5)nn34)CC2)cc1 | inactive: -4.48%
36 | CC1=C(C#N)C(NC(=O)c2cccc(Cl)c2)(C(F)(F)F)C(=O)N1 (stereo unspecified) | inactive: -17.9%
37 | Cc1ccc(Cl)cc1NC(=O)N1CCN(C)c2ncccc21 | inactive: -15.8%
38 | Cc1cccc(C(=O)N2CCc3cc(CNC(=O)CCc4ccccc4)ccc32)c1 | inactive: -22.2%

Row | Structure (SMILES) | activity change, positive = activation
39 | CCOc1ccc2cc(-c3nnc(Nc4ccc(C)cc4)s3)c(=O)oc2c1 | inactive: 1.06%
40 | Cc1ccccc1OCc1ccc(-c2nc(C#N)c(N3CCC(C(N)=O)CC3)o2)o1 | inactive: -21.7%
41 | CC(=O)Nc1ccc(S(=O)(=O)NCCS(=O)(=O)N2CCN(c3ccccc3F)CC2)cc1 | inactive: -28.9%
42 | COc1ccc(NC(=O)c2ccc(NC(=O)CCS(=O)(=O)c3cccs3)cc2)cc1 | inactive: 0.761%
43 | COc1cccc(Nc2nc3ccc(C(=O)c4ccccc4)cc3n3c(C)nnc23)c1 | inactive: -3.12%
44 | O=C(Nc1ccc(Cl)c(-c2nc3cc(Cl)ccc3o2)c1)c1cc2ccccc2o1 | inactive: 18%
45 | Cc1ccccc1NS(=O)(=O)c1nnc(NC(=O)c2ccco2)s1 | inactive: -15.2%
46 | CCOC(=O)c1c(S(=O)(=O)NCC(=O)N(C)c2ccc(C)cc2)c(C)n(C)c1C | inactive: -20.6%
47 | COc1ccc(CCC(=O)NCCc2csc(-c3cccc(C)c3)n2)cc1 | inactive: -10.8%
48 | Cc1ccc(C)c(CN2C(=O)c3ccccc3S(=O)c3ccc(C(=O)NCCC4=CCCCC4)cc32)c1 (stereo unspecified) | inactive: -20.7%
49 | Cc1ccc(C(=O)Nc2ccc3[nH]c(=O)c(=O)[nH]c3c2)cc1 | inactive: -5.29%
50 | CC(C)Oc1ccc(CNC(=O)Cn2c(-c3cccs3)cc3ccccc32)cc1 | inactive: -29%
51 | COc1cccc(C(=O)Nc2ccc(S(=O)(=O)N(Cc3ccccc3)c3ccccc3)cc2)c1 | inactive: 14% [at 11.5 µM, percent change from vehicle, -100% = no light]
52 | CCS(=O)(=O)N1CCc2cc(C(=O)NCCc3ccc(OC)c(OC)c3)ccc21 | inactive: -22.1%
53 | CC(=O)c1ccc(N2CCN(C(=O)C3CCN(S(=O)(=O)c4c(C)noc4/C=C/c4ccccc4F)CC3)CC2)cc1 | inactive: -14.5%
54 | Cc1cc(C)c(S(=O)(=O)NCCc2csc3nc(-c4ccc(Cl)cc4)nn23)c(C)c1 | inactive: -37.5%
55 | Cc1ccc(NC(=O)c2sc3ncnc(N(C)C4CCCCC4)c3c2C)cc1 | inactive: -12.2%
56 | Cc1ccc(C)c(N2CCN(c3nc4ccccc4c(=O)n3-c3ccccc3)CC2)c1 | inactive: -37.3%
